A compilation of properties of binary mixtures (doi:10.1016/j.molliq.2015.11.032)
Some of these densities may be calculated back from excess volumes.

Assay: xn = mol fraction of the nth substance listed
Conditions: 101 kPa

Compound | mass density (298.19 K, x2 = 0.9412) [kg/m3] | mass density (303.21 K, x2 = 0.9412) [kg/m3] | mass density (313.26 K, x2 = 0.9412) [kg/m3] | mass density (323.3 K, x2 = 0.9412) [kg/m3] | mass density (333.07 K, x2 = 0.9412) [kg/m3] | mass density (343.26 K, x2 = 0.9412) [kg/m3] | mass density (353.16 K, x2 = 0.9412) [kg/m3] | mass density (298.19 K, x2 = 0.75) [kg/m3] | mass density (323.16 K, x2 = 0.75) [kg/m3] | mass density (343.26 K, x2 = 0.75) [kg/m3]
[Cl-].c1ccc(C[P+](c2ccccc2)(c2ccccc2)c2ccccc2)cc1 + OCC(O)CO | 1242.4 | 1238.1 | 1230.1 | 1224.3 | 1219.3 | 1211.3 | 1205.5 | – | – | –
C[P+](c1ccccc1)(c1ccccc1)c1ccccc1.[Br-] + OCC(O)CO | – | – | – | – | – | – | – | 1297.4 | 1280 | 1267
